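Briefly, cells in 96-well plates were exposed to five compound concentrations for 48 h, and endpoints were estimated by linear interpolation. GI50: concentration for 50% inhibition of growth. TGI denotes the concentration required for complete inhibition of growth.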

The values below come from PubChem BioAssay (NCI).

The test system of this experiment is NCI-H322M lung. The experiment is described as follows: growth of human tumour cells (NCI), 48 h.

`CC[C@@]12CC(C(=O)OC)=C3Nc4cc5c(cc4[C@@]34CCN(C[C@H]3O[C@H]31)[C@@H]24)[C@@H]1[C@H](O5)[C@@H](O)[C@@]2(CC)CC(C(=O)OC)=C3Nc4cc(OC)ccc4[C@@]34CCN1[C@@H]24`: the GI50 was 0.514 µM and the TGI was over 54 µM.

For the compound `COc1ccccc1[C@H]1C(C(=O)c2ccc(Cl)cc2)C2(N[C@@H]1c1ccccc1)C(=O)Nc1ccc(Cl)cc12` (stereo partly specified), the GI50 was 12.9 µM and the TGI is over 57.5 µM.

Consider `COc1cc(/C=C/C(=O)c2cnn(-c3cc(=O)[nH]c4ccccc34)c2C)cc(OC)c1OC`, for which the GI50 was 4.18 µM and the TGI is over 100 µM.
